According to the RNAGym collection of RNA variant scans (doi:10.7554/elife.90254):
Read counts are not given, so values of variants with three or more changes are uncertain.

B1: LINE1-mini (parent)
chain: GGCAGAGCUCAACACAGCGUGGCAAAGUGGCUGUGGCUAGACUGCC

Variants of: B1
Assay: self-cleavage, relative activity (ratio to wild type); higher = more cleavage; in vitro, sequencing; the parent is a self-cleaving ribozyme

With C31A U38G C46G as the variant, how does the self-cleavage read?
The self-cleavage was 0.

For G36A C37G G40A C46G, which self-cleavage is on record?
Its self-cleavage is 0.03.

With G33U G40U C42A U43G G44U as the variant, how does the self-cleavage read?
The self-cleavage was 0.05.

For G30C G35U U38A G44C, which self-cleavage is on record?
The self-cleavage was 0.02.

With G36U G40A A41C C45G as the variant, how does the self-cleavage read?
Its self-cleavage is 0.05.

With U32C C37A C45U as the variant, how does the self-cleavage read?
The self-cleavage was 0.05.

With C31A G33A C37U A41G as the variant, how does the self-cleavage read?
The self-cleavage was 0.02.

For C42A U43A C45G, which self-cleavage is on record?
Its self-cleavage is 0.07.

Which self-cleavage does the source give for A39U A41C C42U C46U here?
Its self-cleavage is 0.5.

With C37U A41U U43C G44U as the variant, how does the self-cleavage read?
Its self-cleavage is 0.07.

For U43C G44A C45G, which self-cleavage is on record?
Its self-cleavage is 0.28.

For G30C U32C C37A, which self-cleavage is on record?
The self-cleavage was 0.05.

With G33A G40C C45U as the variant, how does the self-cleavage read?
Its self-cleavage is 0.12.

With U32G G44U C46A as the variant, how does the self-cleavage read?
The self-cleavage was 0.02.

For U32C C37G C46A, which self-cleavage is on record?
The self-cleavage was 0.05.

Which self-cleavage does the source give for G35C A41C C42U here?
Its self-cleavage is 0.

With G30A U34A G44A as the variant, how does the self-cleavage read?
Its self-cleavage is 0.04.

For G33U G35A A39G C46G, which self-cleavage is on record?
Its self-cleavage is 0.04.

With G35U U38G A39C U43A as the variant, how does the self-cleavage read?
Its self-cleavage is 0.04.

With U34C C37A A39C as the variant, how does the self-cleavage read?
Its self-cleavage is 0.04.

Which self-cleavage does the source give for G33U C37U U43C here?
Its self-cleavage is 0.02.

For C31G U34A U38C, which self-cleavage is on record?
Its self-cleavage is 0.05.

For G33A G36U G44C, which self-cleavage is on record?
The self-cleavage was 0.05.

For U32C G33U C37G C42A, which self-cleavage is on record?
The self-cleavage was 0.11.

For U38A A39C C42U C45U, which self-cleavage is on record?
The self-cleavage was 0.04.

For G36U G40U C42G, which self-cleavage is on record?
The self-cleavage was 0.37.

For G30A U32A C42G U43C, which self-cleavage is on record?
Its self-cleavage is 0.01.

With G36A C37A U38C A39G as the variant, how does the self-cleavage read?
The self-cleavage was 0.06.

Which self-cleavage does the source give for C31U U34A G40C here?
The self-cleavage was 0.

With U32A G35U C42G as the variant, how does the self-cleavage read?
Its self-cleavage is 0.

For G30A G33A G40U, which self-cleavage is on record?
Its self-cleavage is 0.16.

Which self-cleavage does the source give for C31U C37A U38C A39C C46A here?
The self-cleavage was 0.01.

With G30U A39U U43C as the variant, how does the self-cleavage read?
Its self-cleavage is 0.05.

For G35A C37A U38G U43A G44A, which self-cleavage is on record?
The self-cleavage was 0.

For A39U G40C C42U C46U, which self-cleavage is on record?
Its self-cleavage is 0.01.

With G33U U34C G40C G44U as the variant, how does the self-cleavage read?
The self-cleavage was 0.02.

With G36C G40A G44A as the variant, how does the self-cleavage read?
The self-cleavage was 0.07.

Which self-cleavage does the source give for G30U G36U C37G here?
Its self-cleavage is 0.02.

With G40C G44U C46U as the variant, how does the self-cleavage read?
The self-cleavage was 0.02.

For U32A A39C G40A, which self-cleavage is on record?
The self-cleavage was 0.01.

Which self-cleavage does the source give for G33C C37U C45U here?
Its self-cleavage is 0.03.

With G30A C37A C46U as the variant, how does the self-cleavage read?
The self-cleavage was 0.11.

Which self-cleavage does the source give for G30A C31U G40U here?
Its self-cleavage is 0.03.

Which self-cleavage does the source give for G33U G35U G36A G44A here?
Its self-cleavage is 0.03.

For G33U C45A C46U, which self-cleavage is on record?
Its self-cleavage is 0.02.

For U32A U34C C45G C46U, which self-cleavage is on record?
Its self-cleavage is 0.04.

For U34G A39C C42U, which self-cleavage is on record?
Its self-cleavage is 0.03.

For G30A C31U U34A C37A C46U, which self-cleavage is on record?
Its self-cleavage is 0.03.

Which self-cleavage does the source give for G35A G40A C45U C46A here?
The self-cleavage was 0.08.

With C37G C42A U43A as the variant, how does the self-cleavage read?
The self-cleavage was 0.06.

For U38A C45A C46A, which self-cleavage is on record?
The self-cleavage was 0.23.

Which self-cleavage does the source give for U32A U38C A39C G44A here?
Its self-cleavage is 0.07.

With U32G G33A A39C as the variant, how does the self-cleavage read?
Its self-cleavage is 0.01.

With C31G G33U C42U as the variant, how does the self-cleavage read?
The self-cleavage was 0.09.

With G36A U38G G40U as the variant, how does the self-cleavage read?
The self-cleavage was 0.

For G35C C42U U43G, which self-cleavage is on record?
Its self-cleavage is 0.04.

With G33U C42A C46U as the variant, how does the self-cleavage read?
The self-cleavage was 0.17.

With G30C U32G C45A as the variant, how does the self-cleavage read?
The self-cleavage was 0.2.

For G30C U32G C37A, which self-cleavage is on record?
The self-cleavage was 0.11.

For C37G G44C C46A, which self-cleavage is on record?
Its self-cleavage is 0.04.

For G33U C42U U43A, which self-cleavage is on record?
Its self-cleavage is 0.06.

For G33C C37G C46U, which self-cleavage is on record?
Its self-cleavage is 0.03.

With C31G G35C C45U as the variant, how does the self-cleavage read?
Its self-cleavage is 0.03.

For A41U C42G C46G, which self-cleavage is on record?
The self-cleavage was 0.03.

With G30U G33U C37A as the variant, how does the self-cleavage read?
The self-cleavage was 0.06.

With C31U G35A A39G as the variant, how does the self-cleavage read?
The self-cleavage was 0.02.

With C31U G33U C42A as the variant, how does the self-cleavage read?
The self-cleavage was 0.

With C31U C37U C45U C46A as the variant, how does the self-cleavage read?
The self-cleavage was 0.09.

Which self-cleavage does the source give for G35U C37A U38C C42A here?
The self-cleavage was 0.02.

For A41U U43C C46G, which self-cleavage is on record?
The self-cleavage was 0.

With G33U G36A A41G as the variant, how does the self-cleavage read?
Its self-cleavage is 0.14.

With G33U U38C C42G as the variant, how does the self-cleavage read?
The self-cleavage was 0.03.

With U32G G36U A39G C45G as the variant, how does the self-cleavage read?
The self-cleavage was 0.01.

Which self-cleavage does the source give for A41U U43G C45G here?
Its self-cleavage is 0.05.

With C37U U43C G44A as the variant, how does the self-cleavage read?
The self-cleavage was 0.11.

For G33U U38C C46U, which self-cleavage is on record?
The self-cleavage was 0.04.

With C31U U32A A39U as the variant, how does the self-cleavage read?
Its self-cleavage is 0.06.

Which self-cleavage does the source give for G33A C37A C45U C46G here?
Its self-cleavage is 0.21.

With C31A G35C C45A as the variant, how does the self-cleavage read?
Its self-cleavage is 0.07.

With U32C A41G C45U as the variant, how does the self-cleavage read?
The self-cleavage was 0.06.

With C37G C42A G44A C45U as the variant, how does the self-cleavage read?
The self-cleavage was 0.01.

Which self-cleavage does the source give for G33A U38A A41C here?
Its self-cleavage is 0.01.

For C31U U32C C45G, which self-cleavage is on record?
Its self-cleavage is 0.1.

With C31U G35U G44A as the variant, how does the self-cleavage read?
Its self-cleavage is 0.04.

For C31G A39U G44C, which self-cleavage is on record?
The self-cleavage was 0.07.

Which self-cleavage does the source give for G30U U38G A39U G40A A41C C46G here?
The self-cleavage was 0.03.

With G30A C37A G44A as the variant, how does the self-cleavage read?
The self-cleavage was 0.06.

Which self-cleavage does the source give for U43G G44C C45A here?
Its self-cleavage is 0.13.

For G33A G35U A41G, which self-cleavage is on record?
Its self-cleavage is 0.07.

With C37G A39U C42U C46A as the variant, how does the self-cleavage read?
The self-cleavage was 0.03.

With G30C G33A U38A G44U as the variant, how does the self-cleavage read?
Its self-cleavage is 0.03.

Which self-cleavage does the source give for G29U U32C C42U here?
Its self-cleavage is 0.68.

Which self-cleavage does the source give for U32A G40A G44C here?
The self-cleavage was 0.07.

With C42G U43G C45U as the variant, how does the self-cleavage read?
Its self-cleavage is 0.01.

With C31U G33A U34G G35U C42G as the variant, how does the self-cleavage read?
Its self-cleavage is 0.03.

Which self-cleavage does the source give for C31A U38A C46G here?
Its self-cleavage is 0.12.

Which self-cleavage does the source give for C31A G44U C46A here?
Its self-cleavage is 0.06.

With C37A G40U A41G as the variant, how does the self-cleavage read?
Its self-cleavage is 0.42.

Which self-cleavage does the source give for C31G G33A C42A here?
The self-cleavage was 0.06.

Which self-cleavage does the source give for G30U C31U G33A here?
The self-cleavage was 0.05.

For C37G A41G G44C, which self-cleavage is on record?
Its self-cleavage is 0.

For U32C U34A G36A A39G, which self-cleavage is on record?
The self-cleavage was 0.04.

With C31U G35A G44U as the variant, how does the self-cleavage read?
Its self-cleavage is 0.04.

Which self-cleavage does the source give for U32C G40A C42A here?
The self-cleavage was 0.04.

For G33C G44A C45A, which self-cleavage is on record?
Its self-cleavage is 0.03.

For U38G A39U U43C, which self-cleavage is on record?
Its self-cleavage is 0.07.

For G30C U32G C37U U38C A41C, which self-cleavage is on record?
The self-cleavage was 0.06.

With U32C G33U U38C as the variant, how does the self-cleavage read?
Its self-cleavage is 0.04.

For U32G G33U U38A, which self-cleavage is on record?
Its self-cleavage is 0.1.

For U34A U38G A41G, which self-cleavage is on record?
Its self-cleavage is 0.06.

With U32A G44A C46G as the variant, how does the self-cleavage read?
The self-cleavage was 0.

With C31G G33U U38C G40C G44C as the variant, how does the self-cleavage read?
The self-cleavage was 0.05.

For G30C C37U U38C, which self-cleavage is on record?
Its self-cleavage is 0.06.

Which self-cleavage does the source give for G33A U34G C46A here?
Its self-cleavage is 0.01.

Which self-cleavage does the source give for G30U U32G U34G G40A U43G C45A here?
The self-cleavage was 0.02.

For G30U C31G G36C, which self-cleavage is on record?
The self-cleavage was 0.04.

For A39G C42A G44U, which self-cleavage is on record?
Its self-cleavage is 0.15.

For G36C C37U C42G, which self-cleavage is on record?
Its self-cleavage is 0.01.

Which self-cleavage does the source give for C31U U43A C46G here?
The self-cleavage was 0.02.

For C31U U43A C46U, which self-cleavage is on record?
Its self-cleavage is 0.03.

Which self-cleavage does the source give for G33U U34A G35C here?
Its self-cleavage is 0.04.

For G35C G36U C46U, which self-cleavage is on record?
Its self-cleavage is 0.05.

Which self-cleavage does the source give for G35C U43A C46U here?
Its self-cleavage is 0.03.

For A39U A41U G44U, which self-cleavage is on record?
The self-cleavage was 0.09.

For G30A C42U C45A, which self-cleavage is on record?
Its self-cleavage is 0.41.

For C31G U32G C46A, which self-cleavage is on record?
Its self-cleavage is 0.

Which self-cleavage does the source give for U38C A39U G40C here?
The self-cleavage was 0.02.

Which self-cleavage does the source give for G36U U38C C46U here?
Its self-cleavage is 0.02.

For G33A C37A C45G, which self-cleavage is on record?
Its self-cleavage is 0.03.

Which self-cleavage does the source give for U34A G35C G36U here?
Its self-cleavage is 0.02.

For G33A C42A U43C, which self-cleavage is on record?
Its self-cleavage is 0.17.

Which self-cleavage does the source give for G30C C37U G40U C45A here?
Its self-cleavage is 0.

Which self-cleavage does the source give for G30A C37A G40A here?
The self-cleavage was 0.28.

For C31U U34C G36A G40A C42A, which self-cleavage is on record?
Its self-cleavage is 0.
